Among all 48,000 compounds or so, about 450 (0.94%) were called active. This list was built around the results that the source calls inconclusive (neither active nor inactive); the mix of calls is not that of the screen. Calls follow the shape of the dose curve; as a rule, active = well fitted inhibition curve with a large enough effect; inconclusive = small, poorly fitted or top-dose-only effect; inactive = no such curve, though single readings can be large or run the other way. Potencies of inconclusive entries are doubtful fits and often do not repeat.
test: Primary qHTS for Identification of Small Molecule Inhibitors of Huntingtin Promoter Activity; details: HEK293 HTT promoter firefly luciferase reporter (activity 0% = vehicle and -100% = no light), 24 h; activity change, negative = inhibition: at 57.5 µM (top of the series); also: nearly all actives have a fitted effect of over 50% in size
Method in brief: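 HEK293 luciferase promoter-reporter cells (2,500/well) plated 24 h, then compounds added at up to 57.5 uM final for 24 h at 37 °C. Firefly luminescence by Dual-Glo, normalized to vehicle (0%) and zero RLU (-100%).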
Potency is read from the fitted curve at half-maximal effect; tags tell the direction and shape of the fitted curve.

Row | SMILES | Potency | activity change, negative = inhibition
1 | Cc1ccc(-c2nnc(Nc3ccccc3)c3ccccc23)cc1S(=O)(=O)NCc1nc2ccccc2[nH]1 | inconclusive: 31.6 µM [inhibitor, single point] | 
2 | Cc1ccc(C)c(N2CCN(CCCNC(=O)c3ccc4nc(N5CCCCC5)sc4c3)CC2)c1 | inconclusive: 1 µM [inhibitor, full curve, poor fit] | 
3 | Cc1cccc(N2CCN(C(=O)CCS(=O)(=O)c3ccc4c(c3)oc(=O)n4C)CC2)c1C | inconclusive: 22.4 µM [inhibitor, partial curve, poor fit] | 
4 | O=C(O)C1(Cc2cccc(Nc3nccs3)n2)CCC(Oc2cccc(Cl)c2F)CC1 (configuration not stated) |  | inactive: -7.69%
5 | O=C(CN1C(=O)C2(SCC(=O)N2c2ccccc2)c2ccccc21)NCc1ccccc1 (configuration not stated) |  | inactive: -22.4%
6 | CC(C)(C)c1ccccc1NC(=O)CSc1nc(-c2cccs2)cc(C(F)(F)F)n1 | inconclusive: 35.5 µM [inhibitor, single point] | 
7 | CCOc1ccc(C(=O)Nc2ccc(-n3nncc3-c3ccccc3)cc2)cc1OCC | inconclusive: 39.8 µM [inhibitor, single point] | 
8 | CCC(NC(=O)Nc1cc(OC)ccc1OC)c1c(-n2cccc2)sc2c1CCN(CC)C2 (configuration not stated) | inconclusive: 39.8 µM [inhibitor, single point] | 
9 | O=C(CSc1nc2c([nH]c3ccccc32)c(=O)n1-c1cccc(Cl)c1)N1CCOCC1 | inconclusive: 39.8 µM [inhibitor, single point] | 
10 | CCCCCC(=O)Nc1ccc(NC(=O)c2cc3ccccc3o2)c(OC)c1 |  | inactive: -13.4%
11 | CCOC(=O)c1c(NC(=O)CSc2cn(CCNC(=O)c3ccccc3OC)c3ccccc23)sc2c1CCC2 |  | inactive: -26.9%
12 | CCOc1ccc(-n2c(CC)nc3c(cnn3-c3ccc(Cl)cc3)c2=O)cc1 | inconclusive: 39.8 µM [inhibitor, single point] | 
13 | N#CC1(c2ccc(NC(=O)c3cccnc3NCc3ccncc3)cc2)CCCC1 |  | inactive: 9.09%
14 | Cc1oc(-c2cccc(Cl)c2)nc1CN1CCCC(C(=O)N2CCN(c3ccc(F)cc3)CC2)C1 (configuration not stated) | inconclusive: 22.4 µM [inhibitor, partial curve, poor fit] | 
15 | CCCNC(=O)C(CC)n1nc(CC)n2c(cc3oc(C)cc32)c1=O (configuration not stated) | inconclusive: 39.8 µM [inhibitor, single point] | 
16 | Cn1nc(-c2ccccc2F)c2cc(C(=O)N3CCN(c4ccc(F)cc4)CC3)sc21 | inconclusive: 31.6 µM [inhibitor, partial curve, poor fit] | 
17 | CCCN1CCN(CCCNC(=O)Cn2c(-c3cccs3)cc3ccccc32)CC1 |  | inactive: -26.2%
18 | NCCc1ccc(O)c(O)c1 | inactive | 
19 | COc1ccccc1N(CC(=O)Nc1ccc(C)c(Cl)c1)S(=O)(=O)c1ccc(C)cc1 | inconclusive: 39.8 µM [inhibitor, single point] | 
20 | O=C(C1CCC1)N1CCCc2cc(S(=O)(=O)Nc3ccc(F)cc3)ccc21 | inconclusive: 22.4 µM [inhibitor, partial curve, poor fit] | 
21 | CC1(C)Cc2c(sc(NC(=S)NC(=O)c3ccccc3)c2C(=O)O)CO1 |  | inactive: -22.4%

Row | SMILES | Potency | activity change, negative = inhibition
22 | CC(=O)N1c2ccccc2C(=O)C1N1CCN(c2cccc(C(F)(F)F)c2)CC1 (configuration not stated) | inconclusive: 25.1 µM [inhibitor, partial curve, poor fit] | 
23 | Cc1ccccc1OCC(=O)Nc1ccc2nc(SCC(=O)N(C)c3ccccc3)sc2c1 | inconclusive: 39.8 µM [inhibitor, single point] | 
24 | C[C@H](Cc1ccc(O)c(O)c1)[C@@H](C)Cc1ccc(O)c(O)c1 | inconclusive: 30.6 µM [inhibitor, single point] | 
25 | COc1ccc(CNC(=O)C2CCN(C(=O)c3ccc(-n4ccc5ccccc54)s3)CC2)cc1 | inconclusive: 31.6 µM [inhibitor, single point] | 
26 | CC1=Nc2cc(C(=O)NC3CCCC3)ccc2Sc2ccc(C)cc21 | inconclusive: 2.24 µM [inhibitor, full curve] | 
27 | COc1cccc(C(=O)Nc2ccccc2C(=O)OCc2cc(=O)n3c(C)csc3n2)c1 |  | inactive: -24.9%
28 | Cc1nn(-c2ccc(F)cc2)c(-n2cccc2)c1C(=O)NCCCN1CCN(c2ccccc2F)CC1 | inconclusive: 35.5 µM [inhibitor, partial curve] | 
29 | CC(=O)c1ccc(NC(=O)CC2Nc3cccc4cccc(c34)NC2=O)cc1 (configuration not stated) |  | inactive: -28.2%
30 | CC(C)CCNC(=O)Nc1ccc2c(c1)N(C)C(=O)c1ccccc1S2 | inconclusive: 39.8 µM [inhibitor, single point] | 
31 | COC(=O)CS(=O)(=O)c1nc2ccccc2nc1N1CCCCC1 |  | inactive: 3.89%
32 | Cc1ccc(NC(=O)Cn2c(=O)c3cc(Cl)ccc3n3nncc23)cc1 |  | inactive: -10.8%
33 | COc1ccc(C(=O)NCCn2cc(SCC(=O)NCCc3ccc(OC)c(OC)c3)c3ccccc32)cc1 | inconclusive: 31.6 µM [inhibitor, partial curve, poor fit] | 
34 | CC1=C(c2ccc(C)c(C)c2)S(=O)(=O)N=C1N1CCC(C(=O)NCCc2ccco2)CC1 | inconclusive: 12.6 µM [inhibitor, partial curve] | 
35 | CCOc1ccc(NCc2cccn2-c2nnc(N3CCC(C(=O)NCCc4ccc(OC)c(OC)c4)CC3)s2)cc1 | inconclusive: 25.1 µM [inhibitor, partial curve, poor fit] | 
36 | COc1c(Cl)cc2c([nH]c3cnccc32)c1NC(=O)c1cccnc1C |  | inactive: 4.58%
37 | CCCCCC=CCC=CCCCCCCCC(=O)OCC |  | inactive: -1.68%
38 | Cc1ccc2[nH]c(CSc3nnc(NC(=O)c4ccccc4C)s3)cc(=O)c2c1 | inconclusive: 20 µM [inhibitor, partial curve, poor fit] | 
39 | COc1cc(OC)cc(C(=O)Nc2ccc3c(c2)N(C2CCCC2)C(=O)c2ccccc2S3)c1 | inconclusive: 7.08 µM [inhibitor, full curve, poor fit] | 
40 | CCOc1ccc(-c2nnc(SCC(=O)NCc3ccccc3)nc2-c2ccc(OCC)c(OC)c2)cc1OC | inconclusive: 39.8 µM [inhibitor, single point] | 
41 | CCc1ccc(C2CC(=O)Nc3c2c(C)nn3-c2nc(C)cc(C)n2)cc1 (configuration not stated) | inconclusive: 25.1 µM [inhibitor, partial curve, poor fit] | 
42 | Cc1ccc(C)c(N2CCN(S(=O)(=O)c3c(C)nc4sccn4c3=O)CC2)c1 |  | inactive: -4.98%

Row | SMILES | Potency | activity change, negative = inhibition
43 | COc1ccc(NC(=O)C2CCCN(S(=O)(=O)c3ccc4c(c3)CCCC(=O)N4)C2)c(OC)c1 (configuration not stated) | inconclusive: 25.1 µM [inhibitor, single point] | 
44 | O=C(CN1C(=O)CC(c2ccccc2)Sc2ccccc21)Nc1cccc(Cl)c1 (configuration not stated) | inconclusive: 39.8 µM [inhibitor, single point] | 
45 | Cc1ccc(CCNC(=O)C2CCN(c3nnc(-n4cccc4CNc4ccc(C)cc4)s3)CC2)cc1 | inconclusive: 25.1 µM [inhibitor, partial curve] | 
46 | O=S(=O)(c1ccc(Br)cc1)c1nc(-c2cccs2)oc1SCc1ccccc1F | inconclusive: 39.8 µM [inhibitor, single point] | 
47 | CCn1c(=O)n(CC)c2cc(N3CCCCC3)c(NC(=O)Nc3ccccc3C(F)(F)F)cc21 | inconclusive: 28.2 µM [inhibitor, single point] | 
48 | Cc1cc(C)n2nc(SCC(=O)Nc3cccc(C(F)(F)F)c3)nc2n1 | inconclusive: 31.6 µM [inhibitor, single point] | 
49 | CCC(Oc1ccc(F)cc1)C(=O)Nc1nc(-c2ccc(F)cc2)ns1 (configuration not stated) | inconclusive: 35.5 µM [inhibitor, single point] | 
50 | Cc1cccc(Cn2c(SCc3ccc(C(=O)NC4CCCCC4)cc3)nc3cccnc32)c1 | inconclusive: 20 µM [inhibitor, single point] | 
51 | CCn1c(=O)cc(SCC(=O)N2CCN(c3cc(C)ccc3C)CC2)c2ccccc21 | inconclusive: 35.5 µM [inhibitor, single point] | 
52 | O=C(CSc1nnc(-c2ccccc2)o1)N1CCCc2ccccc21 |  | inactive: 26.2%
53 | Cc1ccc(C)c(N2CCN(C(=O)Cn3nc(Cc4cccnc4)c4ccccc4c3=O)CC2)c1 | inconclusive: 25.1 µM [inhibitor, partial curve, poor fit] | 
54 | Nc1nc(N)c2nc(-c3cccc(O)c3)c(-c3cccc(O)c3)nc2n1 | inconclusive: 4.32 µM [inhibitor, full curve, poor fit] | 
55 | Cc1cc(C)c2c(C)c(C(=O)N3CCC(c4nc5ccccc5s4)CC3)oc2c1 | inconclusive: 7.08 µM [inhibitor, single point] | 
56 | Cc1nc2cccnc2n1-c1cccc(C(=O)NCCc2ccc(Cl)cc2)c1 | inconclusive: 10 µM [inhibitor, partial curve, poor fit] | 
57 | COc1cc(CN2CCc3nc(N4CCN(c5ccccc5F)CC4)ncc3C2)ccc1OC(C)C | inconclusive: 1 µM [inhibitor, full curve, poor fit] | 
58 | CCC(=O)N1CCCc2cc(S(=O)(=O)Nc3ccc(C)c(C)c3)ccc21 | inconclusive: 25.1 µM [inhibitor, partial curve] | 
59 | O=C(Nc1ccc2nc(SCC(=O)N3CCCc4ccccc43)sc2c1)c1ccc(F)cc1 | inconclusive: 28.2 µM [inhibitor, partial curve, poor fit] | 
60 | Cn1cnc(S(=O)(=O)N2CCC(C(=O)N3CCN(c4cccc(C(F)(F)F)c4)CC3)CC2)c1 |  | inactive: -15.7%
61 | CC(C)(C)c1ccc(NC(=O)CSc2nnc3scc(-c4ccccc4)n23)cc1 | inconclusive: 39.8 µM [inhibitor, single point] | 
62 | CCOC(=O)c1cnc2c(OC)cccc2c1Nc1cccc(O)c1 | inconclusive: 31.6 µM [inhibitor, single point] | 

Source: PubChem BioAssay AID1508623 (National Center for Advancing Translational Sciences (NCATS), 2021)
